# Measurements taken from PubChem BioAssay AID485344 (National Center for Advancing Translational Sciences (NCATS), 2010).
# About 6,900 (2%) of roughly 340,000 compounds were called active. Rule as the data show it: active = inhibition above about 30%; inactive = below that, where a call was filed. The entries are a selection whose mix differs from that of the whole data set. The source gives no active or inactive call for entries shown without one.
# Biological target: D(2) dopamine receptor (Homo sapiens) (UniProt P14416)
# Assay: HTS Assay for Allosteric Antagonists of the Human D2 Dopamine Receptor: Primary Screen for Antagonists; also: 0% is about no effect
# Conditions: HEK293 TREx D2 cells, calcium flux, dopamine EC80; at 10 µM; stronger effect = higher value
# Outline: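 Compounds are added to dye-loaded, induced HEK293 T-REx cells coupled to calcium release via D2; after a 3 min kinetic read an EC80 dopamine stimulus is given and fluorescence is recorded for 3 more min.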
# Sequence of UniProt P14416 (P14416 whole entry, looked up): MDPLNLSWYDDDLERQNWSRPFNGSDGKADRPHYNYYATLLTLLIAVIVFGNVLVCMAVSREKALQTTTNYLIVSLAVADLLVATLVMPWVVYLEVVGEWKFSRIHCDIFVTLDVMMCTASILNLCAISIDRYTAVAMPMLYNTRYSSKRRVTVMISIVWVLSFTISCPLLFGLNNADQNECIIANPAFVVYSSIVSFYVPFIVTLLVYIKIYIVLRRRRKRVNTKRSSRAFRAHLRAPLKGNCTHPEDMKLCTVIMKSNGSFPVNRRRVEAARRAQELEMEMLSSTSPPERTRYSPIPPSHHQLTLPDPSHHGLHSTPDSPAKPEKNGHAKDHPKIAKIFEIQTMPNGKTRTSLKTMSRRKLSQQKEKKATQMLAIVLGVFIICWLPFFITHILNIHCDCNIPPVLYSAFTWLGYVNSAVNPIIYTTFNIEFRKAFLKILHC
row,Compound,inhibition
1,O=C(c1ccccc1)c1ccc2nc(N3CCN(c4ccccc4)CC3)c3nncn3c2c1,7.9%
2,Cc1ccc(CNC(=O)c2ccc3c(c2)NC(=O)C(CS(=O)(=O)Cc2ccc(F)cc2)N3)cc1 (configuration not stated),2.53%
3,CN(C)c1cccc(C(=O)Nc2nc3ccc(S(=O)(=O)NC(C)(C)C)cc3s2)c1,9.18%
4,COc1cc2c(cc1NC(=O)COc1ccc(Br)cc1C)oc1ccccc12,3.61%
5,Cc1ccccc1NS(=O)(=O)c1ccc2c(c1)NC(=O)CCS2,-11.8%
6,CC(C)CCNC(=O)CCC(=O)N1Cc2ccccc2Oc2ncccc21,1.95%
7,CCN(C(=O)CCS(=O)(=O)c1ccc2c(c1)oc(=O)n2C)c1ccc(OC)cc1,5.93%
8,Cc1[nH]c2ccc(C(=O)Nc3ccc(F)cc3)cc2c1C,5.44%
9,Cc1ccccc1CN1C(=O)c2ccccc2S(=O)c2ccc(C(=O)NCc3ccco3)cc21 (configuration not stated),21.4%
10,Cc1ccc(NC(=O)CSc2nc3c(c(=O)[nH]2)CCC3)cc1Cl,11.6%
11,CCS(=O)(=O)N1CCC2(CC1)OC(=O)C(C)=C2C(=O)NCc1cccc(Cl)c1,-4.57%
12,O=c1c([N+](=O)[O-])c(NCCN2CCCCCC2)c2ccccc2n1-c1ccccc1,active: 48.8%
13,CCn1c(COc2cccc(C)c2)nc2ccccc21,-9.94%
14,O=S(=O)(c1ccc(Br)cc1)c1nc(-c2cccs2)oc1SCc1ccc(F)cc1,14.2%
15,O=C(Nc1ccccc1)c1ccccc1CCc1ccccc1,active: 31.8%
16,Cc1oc(-c2ccccc2F)nc1CS(=O)(=O)CC(=O)N1CCN(c2ccc(Cl)cc2)CC1,9.36%
17,CCOc1ccc(C(=O)NCC(=O)OCc2c(C)noc2C)cc1OCC,active: 37.1%
18,COc1ccc(CCn2c(=O)c3ccccc3n(CC(=O)Nc3cccc(C)c3)c2=O)cc1OC,-20.9%
19,CC(=O)Nc1ccccc1-c1nc2ccccc2n(CC(=O)Nc2ccc(C)c(Cl)c2)c1=O,5.2%
20,CCc1cccc(NC(=O)c2c(N3CCCC3=O)c3cc(C)ccc3n2C)c1,13.8%
21,Cc1ccc(C)c(S(=O)(=O)c2cn(C)c3cc(F)c(F)cc3c2=O)c1,-4.49%

row,Compound,inhibition
1,Cc1ccc(CN2CCN(CCCc3ccccc3)CC2CCO)cc1 (configuration not stated),active: 49.2%
2,Cc1ccc(S(=O)Cc2ccc(C(=O)NC3CCCCCC3)o2)cc1 (configuration not stated),4.14%
3,Cc1ccc(S(=O)(=O)Nc2ccc3[nH]c(=O)sc3c2)cc1C,-21.6%
4,O=C(c1ccc2c(c1)N(Cc1ccc(Cl)cc1)C(=O)c1ccccc1S2(=O)=O)N1CCC(Cc2ccccc2)CC1,-9.24%
5,Cc1ccc(N2CC(NC(=O)c3ccco3)CC2=O)cc1 (configuration not stated),-26.4%
6,CCOc1ccc(NC(=O)CSC2=Nc3ccccc3C3=NC(CC(=O)NCc4ccccc4OC)C(=O)N23)cc1 (configuration not stated),-1.17%
7,O=C(c1ccc2c(c1)N(Cc1ccc(F)cc1)C(=O)c1ccccc1S2(=O)=O)N1CCCCCC1,25.3%
8,O=C(Nc1cc2c(cc1C(=O)c1ccc(Br)cc1)OCCO2)c1ccc(Cl)cc1,4.95%
9,CCOc1ccc(Nc2nc(N)c(C(=O)c3ccccc3Cl)s2)cc1,-5.73%
10,Cc1cccc(CC(=O)NC2CC(=O)N(c3ccc4c(c3)OCCO4)C2)c1 (configuration not stated),-10.3%
11,Cc1ccccc1NC(=O)c1ccno1,active: 31.7%
12,CCOC(=O)c1ccc(N2C(=O)c3[nH]nc(-c4ccc(C)cc4)c3C2c2ccc(O)cc2)cc1 (configuration not stated),27.3%
13,Cc1ccccc1CSc1ncc(Cl)c(C(=O)NCc2ccccc2)n1,1.6%
14,CCC(=O)N1CCc2cc(Br)cc(S(=O)(=O)CCC(=O)Nc3ccc(CC)cc3)c21,6.18%
15,COc1ccc(-c2cn3c(n2)sc2cc(C(=O)Nc4ccc(F)cc4)ccc23)cc1,10.2%
16,CC(=O)OC1=C(C(C)=O)N(Cc2ccccc2)S(=O)(=O)c2ccccc21,-3.01%
17,Cc1ccc(Cl)cc1NC(=O)c1csnn1,-3.17%
18,Cc1cc(NC(=O)c2ccc(F)cc2)ccc1-c1cc2ccccc2oc1=O,3.99%
19,CCOC(=O)c1nnn(CC(=O)NC(=O)Nc2ccccc2F)c1C(=O)OCC,15.4%
20,O=C(c1cc(-c2ccc(Br)cc2)n[nH]1)N1CCN(S(=O)(=O)c2ccc(Br)s2)CC1,3.36%
21,CCCCSc1nnc2[nH]c(=O)cc(C)n12,0.185%

row,Compound,inhibition
1,Cc1ccc2c(c1)C(=O)OC(C(=O)Nc1ccc(C(=O)O)cc1)C2 (configuration not stated),-1.27%
2,O=C(Nc1ccc(Cl)cc1)c1ccc2oc(=O)n(Cc3ccccc3)c2c1,-15.7%
3,COc1ccc(C(=O)CN2CCN(S(=O)(=O)c3ccc(F)cc3)CC2)cc1,18.9%
4,COc1cc2c(cc1OC)C(COc1ccc3c(C)cc(=O)oc3c1)N(C(=O)c1ccc(C)cc1)CC2 (configuration not stated),14.5%
5,Cc1ccc(C)c(NC(=O)CSc2nc(=O)n(CCN3CCOCC3)c3c2CCC3)c1,-10.7%
6,CC(C)Cn1cc(NC(=O)NCc2ccc(Cl)cc2)c2ccccc2c1=O,-2.16%
7,COc1ccc(C2c3c(n(C)c4ccccc34)C(=O)N2CC(=O)Nc2c(C)cc(C)cc2C)cc1 (configuration not stated),6.94%
8,CCOc1ccccc1CNC(=O)C(CC)n1nc(C)c2c(C)n(-c3ccccc3)nc2c1=O (configuration not stated),-3.23%
9,CCOC(=O)N1CCC(NC(=O)c2ccc3c(c2)N(Cc2ccccc2)C(=O)c2ccccc2S3(=O)=O)CC1,-15.6%
10,COc1ccc(Br)c2c1-c1nc(NC(=O)c3ccc(F)cc3)sc1C2,7.29%
11,CCc1ccc(-c2nc3c(c(SCc4ccccc4)n2)Cc2c(CO)cnc(C)c2O3)cc1,12.8%
12,CC(C)Oc1ccc(CNC(=O)c2cc3cccc4c3n2CC(C)S4)cc1 (configuration not stated),10.5%
13,Cc1ccc(Cl)cc1NC(=S)N(CCCN1CCN(C)CC1)Cc1cccs1,active: 45.1%
14,CCOc1ccc(C2C(=O)N(C3CCCCC3)CC(=O)N2Cc2ccccc2OC)cc1OC (configuration not stated),-9.87%
15,Cc1ccc(Cn2c(C(=O)Nc3ccc(Cl)cc3)cc3sccc32)cc1,17.6%
16,Cc1ccc(-c2onc(C)c2C)cc1S(=O)(=O)N1CCC(C)CC1,3.62%
17,COc1ccc(Cl)cc1NC(=O)c1ccc(CN2C(=O)CCn3nc(C)cc32)cc1,4.93%
18,O=C(O)C1CCCC2CN3CCc4c([nH]c5ccccc45)C3C(O)C21 (configuration not stated),active: 57.1%
19,COc1cc(Cl)c(C)cc1NC(=O)CNC(=O)Cn1ccc2ccccc2c1=O,1.64%
20,Cc1nc2cc(-c3ccc(Cl)cc3)nn2c(C)c1CCC(=O)N1CCN(c2ccccc2)CC1,26%
